Laboratory results from article PMC4336329 (PLoS ONE, 2015).
In all, about 310,000 compounds went through this assay and about 2,200 (0.71%) showed an effect of 50% or more. The effect is printed as a negative number. The list shows a part of the results.

Each compound was assayed against human ether-à-go-go-related gene (hERG) potassium channel (human, UniProt Q12809) (assay: primary screen, population patch clamp on CHO cells stably expressing hERG).
Sequence of human ether-à-go-go-related gene (hERG) potassium channel (Q12809 whole entry, looked up): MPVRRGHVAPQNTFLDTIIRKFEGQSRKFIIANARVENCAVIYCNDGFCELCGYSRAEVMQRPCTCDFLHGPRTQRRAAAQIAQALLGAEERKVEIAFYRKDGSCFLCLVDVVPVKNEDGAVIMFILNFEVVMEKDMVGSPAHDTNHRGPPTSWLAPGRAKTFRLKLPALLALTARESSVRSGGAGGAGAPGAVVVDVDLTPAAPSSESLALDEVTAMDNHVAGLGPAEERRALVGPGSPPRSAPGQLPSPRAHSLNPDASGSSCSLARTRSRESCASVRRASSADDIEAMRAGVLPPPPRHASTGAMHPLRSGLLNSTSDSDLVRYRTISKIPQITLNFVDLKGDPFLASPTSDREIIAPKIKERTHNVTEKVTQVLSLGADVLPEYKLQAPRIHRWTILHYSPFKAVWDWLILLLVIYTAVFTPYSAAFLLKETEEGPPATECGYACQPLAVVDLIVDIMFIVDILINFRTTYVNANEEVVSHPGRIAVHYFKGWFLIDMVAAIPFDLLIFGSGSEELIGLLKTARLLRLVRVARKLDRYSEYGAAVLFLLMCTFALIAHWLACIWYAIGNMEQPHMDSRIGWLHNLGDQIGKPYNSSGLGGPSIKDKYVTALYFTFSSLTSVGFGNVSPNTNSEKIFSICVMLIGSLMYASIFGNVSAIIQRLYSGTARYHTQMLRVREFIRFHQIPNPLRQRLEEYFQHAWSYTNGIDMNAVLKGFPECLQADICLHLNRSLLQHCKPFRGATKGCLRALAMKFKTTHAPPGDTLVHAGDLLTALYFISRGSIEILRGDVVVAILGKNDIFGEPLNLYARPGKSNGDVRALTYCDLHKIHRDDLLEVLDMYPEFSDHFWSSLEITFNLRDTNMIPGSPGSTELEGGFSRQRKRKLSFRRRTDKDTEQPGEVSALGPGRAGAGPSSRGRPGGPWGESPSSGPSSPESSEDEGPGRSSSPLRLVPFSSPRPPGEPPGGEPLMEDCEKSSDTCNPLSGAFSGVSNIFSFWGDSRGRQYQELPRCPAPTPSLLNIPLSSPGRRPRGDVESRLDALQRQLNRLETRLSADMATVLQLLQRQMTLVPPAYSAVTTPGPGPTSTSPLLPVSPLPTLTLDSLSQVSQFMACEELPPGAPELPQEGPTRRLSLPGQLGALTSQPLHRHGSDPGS

Row | Compound | hERG current change (%, negative = inhibition) at 1uM [%]
1 | Cn1c(CNc2ccc(Cl)cc2)nnc1SCCN1CCCCC1 | -21.4
2 | CSCC[C@H](NC(=O)[C@@H]1Cc2ccccc2CN1)C(=O)NC1CCCCC1 | 14.7
3 | Cc1ccc(NC(=O)NC(=O)N(C(C)C)S(C)(=O)=O)nc1 | -3.45
4 | O=C(Cc1ccccc1[N+](=O)[O-])N1CCN(c2ccccc2F)CC1 | 23.4
5 | Cc1sc2ncnc(NCC3(N4CCOCC4)CCCCC3)c2c1C | -23
6 | CC(O)CNc1nc(NCc2ccccc2)c2cnn(C)c2n1 (centres unmarked) | 23.8
7 | COc1ccccc1NC(=S)c1ccccc1 | 5.44
8 | Fc1ccccc1COc1cccc2cccnc12 | 10.1
9 | CC12CCC(C[N+](C)(C)C1)C2(C)C.[I-] (centres unmarked) | 12.3
10 | Cc1ccc(N(CC(=O)N2CCN(Cc3ccccc3)CC2)S(C)(=O)=O)cc1C | -0.162
11 | CC(C)OCCOc1ccc2oc(-c3ccco3)cc(=O)c2c1 | 9.95
12 | CCOC(=O)c1ccc(N/C=C/C(=O)c2ccc(OC)cc2)cc1 | 9.14
13 | CCOc1ccc(C2C(C(=O)c3cccs3)=C(O)C(=O)N2Cc2cccnc2)cc1OC (centres unmarked) | 7.62
14 | COc1ccc(C2=NN(C(=O)c3cccs3)C(c3ccc(OC)cc3)C2)cc1 (centres unmarked) | 20.3
15 | Cc1cc(OC(C)C(=O)N(Cc2ccco2)C2CCS(=O)(=O)C2)ccc1Cl (centres unmarked) | -4.11
16 | COc1ccc(NS(=O)(=O)c2ccc(C)c(C(=O)N3CCC3)c2)cc1 | 7.95
17 | CN(CC(=O)Nc1ccccc1Cl)C(=O)CSc1nnc(N)s1 | 14
18 | CC(O)c1nc2ccccc2n1CCCCOc1ccccc1 (centres unmarked) | 22.3
19 | COCc1nnc(NC(=O)CS(=O)(=O)c2ccc(C)cc2)s1 | 12.5
20 | Cc1ccc2c(c1)C(C)(C)[C@]1(C)NC(=O)CCN21 | 8.67
21 | COC(=O)c1cc(-c2c(-c3cc(OC)c(OC)c(OC)c3)noc2C)cc([N+](=O)[O-])c1 | 3.06
22 | Fc1ccc(-n2nnc(-c3ncc[nH]3)n2)cc1 | 9.84

Row | Compound | hERG current change (%, negative = inhibition) at 1uM [%]
23 | COCc1cc(=O)n2[nH]c(-c3ccco3)cc2n1 | 10.6
24 | O=C(CNC(=S)N(CCCN1CCOCC1)Cc1cccs1)NCc1ccc(Cl)cc1 | -61.3
25 | O=C(O)c1cccc(S(=O)(=O)NCCc2ccccc2)c1 | 3.88
26 | CCc1ccc(CNC(=O)Cn2nc(-c3ccc(C)cc3)ccc2=O)cc1 | -3.33
27 | CCn1c(-c2ccsc2)nc2c1c(=O)[nH]c(=O)n2Cc1ccccc1 | 12.2
28 | c1ccc(Nc2cccc(Nc3ccccc3)n2)cc1 | -6.01
29 | COc1ccc(-c2nn(CCC#N)cc2C(=O)Nc2ccccc2)cc1OC | -6.45
30 | Cc1ccc(S(=O)(=O)N2CCN(C(=O)C3CCCO3)CC2)cc1C (centres unmarked) | 15.1
31 | O=C(CCNS(=O)(=O)c1ccc2[nH]c(=O)oc2c1)Nc1cccc(Br)c1 | 15.6
32 | CC1Nc2ccccc2C(=O)N1NC(=O)c1ccc(Br)cc1 (centres unmarked) | 8.24
33 | COC(=O)COc1ccc(S(=O)(=O)N2CCN(c3ccc(F)cc3)CC2)cc1 | -3.44
34 | CC(C)(C)OC(=O)N1CCC(c2cc(=O)n3[nH]cc(C(=O)NC4CCCC4)c3n2)CC1 | 13.8
35 | COc1ccc(-c2cc3nc4n(c(=O)c3s2)CCCCC4)cc1 | 11
36 | O=C(Cc1ccccc1)N1CCCC1c1ccccc1 (centres unmarked) | 10.1
37 | O=C1CCCC(O)=C1Sc1ccccc1C(=O)O | 7.98
38 | COc1ccc(N(C(=O)c2snc(C(N)=O)c2N)C(C(=O)NC2CCCC2)c2cc(OC)ccc2OC)cc1 (centres unmarked) | 1.31
39 | O=C(c1cc(S(=O)(=O)N2CCCCC2)ccc1F)N1CCC2(CC1)OCCO2 | -12.1
40 | CCOc1ccccc1N(C(=O)CNC(=O)c1ccco1)C(C(=O)NC1CCCC1)c1cccnc1 (centres unmarked) | 1.39
41 | CC(NC(=O)c1ccc2nc[nH]c2c1)c1ccccc1 (centres unmarked) | 6.54
42 | CCN1CCN(c2ccc(S(=O)(=O)N3CCOCC3)cc2NC(=O)C(C)Oc2cccc(Cl)c2)CC1 (centres unmarked) | -25.8
43 | COc1ccc(C(=O)Nc2ccccc2C(=O)Nc2ccccc2C(=O)O)cc1 | 10.6
44 | Cc1noc(C)c1COC(=O)/C=C/c1ccccc1Cl | 7.66

Row | Compound | hERG current change (%, negative = inhibition) at 1uM [%]
45 | Cc1ccc2c(c1)C1CN(C)CCC1N2C(=O)CCCN1C(=O)c2cccc3cccc(c23)C1=O (centres unmarked) | -6.16
46 | O=C(O)c1ccc2c(c1)C(=O)N(c1cccc(C(=O)/C=C/c3ccccc3)c1)C2=O | 16.3
47 | O=c1c(-c2n[nH]c(=S)o2)cccn1Cc1ccccc1 | 6.74
48 | Cc1nc(SCc2ccc(Cl)cc2)ncc1C(=O)O | 12
49 | O=C(O)Cn1c2c(c3ccccc31)CSc1ccc(Cl)cc1-2 | 18
50 | C#CCOCCOCCOCCNc1nc(N2CCN(C(=O)C([C@@H](C)CC)n3cc(C(N)COC(=O)C(F)(F)F)nn3)CC2)nc(N2CCN(C(=O)[C@H](Cc3ccc(O)cc3)n3cc(C(N)[C@H](C)CC)nn3)CC2)n1.Cl (some centres unmarked) | 16.4
51 | CCCOc1ncnc2c1[nH]c1ccc(OC)cc12 | 10.1
52 | COc1ccc(Cl)cc1NC(=O)C(C)OC(=O)Cn1cc(C(F)(F)F)ccc1=O (centres unmarked) | 11.5
53 | COc1ccc(/C=N/NC(=O)c2c(C)nc3ccc(Cl)cn23)cc1OC | 6.45
54 | CCOC(=O)C1CCN(S(=O)(=O)c2ccc(-c3cc(C(F)(F)F)n(C)n3)s2)CC1 | -8.95
55 | COc1ccc(CCNS(=O)(=O)c2ccc(C(=O)NCc3ccco3)cc2)cc1OC | 8.44
56 | Cc1ccc(CNC(=O)C2CCCCN2S(=O)(=O)c2ccccc2)cc1 (centres unmarked) | 15
57 | Cc1ccc(S(=O)(=O)NNC(=S)Nc2ccc(Cl)cc2)cc1 | 5.21
58 | COc1ccc(NC(=O)C2CC(=O)N(C)C(=Nc3ccc4c(c3)OCO4)S2)cc1 (centres unmarked) | -7.2
59 | Cc1ccc(NC(=O)NNC(=O)COc2ccc3ccccc3c2)cc1 | 12.5
60 | O=C(NCCCCc1ccccc1)c1ccccc1Cl | 13.6
61 | Cc1ccc(CN(C(=O)c2ccc([N+](=O)[O-])cc2)C2CCS(=O)(=O)C2)o1 (centres unmarked) | 4.21
62 | COc1cccc(-c2nnc(NC(=O)c3cccs3)s2)c1 | 21.4
63 | Cc1[nH]nc2c1C(Cc1ccccc1)C(C#N)=C(N)O2 (centres unmarked) | 1.21
64 | COc1ccccc1OCC(=O)Nc1ccc(S(=O)(=O)N2CCOCC2)cc1 | 1.96
65 | CCOC(=O)CSc1nc2c(c(=O)[nH]c(=O)n2C)n1C/C=C(/C)Cl | -7.88
66 | CC(C(=O)NCC1CCCO1)c1ccc([N+](=O)[O-])cc1 (centres unmarked) | -0.0299

Row | Compound | hERG current change (%, negative = inhibition) at 1uM [%]
67 | O=C(NCc1ccccc1)C1=C[C@@H](c2coc3ccccc3c2=O)C[C@@H](OCCCCO)O1 | -42.5
68 | CSC[C@H](NC(=O)Cc1c(C)c2cc3c(C)c(C)oc3cc2oc1=O)C(=O)N[C@@H](Cc1ccccc1)C(=O)O | 3.32
69 | COP(=O)(OC)C(Nc1ccc(Cl)cc1)c1ccccc1 (centres unmarked) | 8.64
70 | O=C(CSCc1ccccc1)Nc1ccc(F)cc1F | 6.48
71 | COc1cccc(N2C(=O)NC(=O)/C(=C/c3ccc4c(c3)Cc3ccccc3-4)C2=O)c1 | 3.88
72 | CCCCn1c(N)c(N(CC(C)C)C(=O)c2cccc(S(=O)(=O)N3CCCCCC3)c2)c(=O)[nH]c1=O | 4.52
73 | COCCNC(=S)N=Nc1c(O)[nH]c2ccc([N+](=O)[O-])cc12 | -0.751
74 | CCCNc1c(NS(=O)(=O)c2ccc3c(c2)CCCC3)c(=O)oc2ccccc12 | 13.1
75 | CCN(CC(=O)NCc1ccc(Cl)cc1)C(=O)c1ccc(S(=O)(=O)NCc2ccco2)cc1 | -0.864
76 | O=C(Nc1cccc(C(F)(F)F)c1)c1cccnc1NCCc1ccccc1 | 7.9
77 | O=C(O)C[C@]1(C(=O)Nc2ccc(F)cc2)CC(/C=C/c2ccccc2)=NO1 | 9.76
78 | COc1cc(/C=C2\N=C(C)OC2=O)cc(OC)c1OC | 16.3
79 | COc1cc(C(=O)OCn2nnc3ccccc3c2=O)cc(OC)c1OC | 15.8
80 | COc1ccccc1N=Nc1c(C)[nH]n(-c2ccccc2)c1=O | 14
81 | CC(C)(C)c1ccc(OCCON2C(=O)CCC2=O)c(Cl)c1 | -14
82 | Cc1cc(N(C)/N=C/c2ccccc2O)nc(-c2ccccc2O)n1 | 20.6
83 | O=c1c2ccccc2nc(-c2cccs2)n1-c1cccc2ccccc12 | 9.63
84 | CC(C)(C)Sc1ccccc1S(=O)(=O)C(C)(C)C | 7.35
85 | O=c1ccc(-c2ccc(S(=O)(=O)Nc3ccccc3Cl)o2)n[nH]1 | 13.8
86 | CCCCC(O)(CCN1CCOCC1)c1ccc(Cl)cc1.Cl (centres unmarked) | -51.3
